Test results from ChEMBL document CHEMBL1201862, “PubChem BioAssay data set” (2004).

Test system: NCI-H322M
Experiment: growth of human tumour cells (NCI), 48 h

Q: Which GI50 does the source give for `NCCNc1nc(N2CCCC2)c2nc(Cl)c(NCc3ccccc3)nc2n1` here?
A: inactive: 2.48 µM

Q: `CN(C)c1ccc(C=c2c3ccccc3n3c2cc(-c2ccc(Cl)cc2)[n+]3C)cc1` was tested. Which GI50 did it give?
A: active: 0.465 µM

Q: `COC(=O)c1c(C)c2c(c(C)c1O)OC(=O)c1c(C)cc(O)c(C=O)c1O2` was tested. Which GI50 did it give?
A: inactive: > 100 µM

Q: For `C(=N\c1cnc2ccccc2c1)/c1ccc2ccccc2n1`, which GI50 is on record?
A: inactive: > 100 µM

Q: `CN(C(=O)Cc1cccc(N=C=S)c1)[C@H]1CCCC[C@@H]1N1CCCC1` was tested. Which GI50 did it give?
A: inactive: 17.3 µM

Q: For `Cn1c2ccccc2c2c3c(c4c5ccccc5n(C5OC(CO)C(O)C(O)C5O)c4c21)C(=O)OC3=O` (stereo not drawn), which GI50 is on record?
A: inactive: > 100 µM

Q: `COc1ccc(/C=N/n2c(-c3ccccc3)n[nH]c2=O)cc1` was tested. Which GI50 did it give?
A: inactive: > 100 µM

Q: With `CCO/C([O-])=C(/C=O)[n+]1c(C)n(C)c2ccccc21` as the molecule, how does the GI50 read?
A: inactive: > 100 µM

Q: `CCOC(=O)c1cc2c([N+](=O)[O-])c(N)ccc2s1` was tested. Which GI50 did it give?
A: inactive: > 100 µM

Q: How did the GI50 turn out when `O=C1c2ccccc2C(=O)c2c1sc1nc3ccccc3n21` was run?
A: inactive: 1.89 µM

Q: `CN1CC2=C(N=C(S)NC2c2ccccc2)/C(=C/c2ccccc2)C1` (stereo not drawn) was tested. Which GI50 did it give?
A: inactive: 97.9 µM

Q: Which GI50 does the source give for `Clc1cc(Cl)cc(C2SCc3nc4ccccc4n32)c1` (stereo not drawn) here?
A: inactive: 19.4 µM

Q: How did the GI50 turn out when `Cc1c2ccc3ccccc3c2c[n+]2ccccc12` was run?
A: inactive: 4.65 µM

Q: How did the GI50 turn out when `COc1ccc2c(C(=O)O)cc3ccccc3c2c1OC` was run?
A: inactive: 35.1 µM

Q: With `CCOC(=O)NC(=O)c1c[nH]c(=O)[nH]c1=O` as the molecule, how does the GI50 read?
A: inactive: > 100 µM

Q: Which GI50 does the source give for `O=C(N[C@H]1CCC[C@H]1C(=O)Nc1ccc(C(F)(F)F)cc1)OCc1ccccc1` here?
A: inactive: > 100 µM

Q: Which GI50 does the source give for `CCOC(=O)CCC(NC(=O)c1ccc(Oc2nc3ccccc3nc2C(=O)OCC)cc1)C(=O)OCC` (stereo not drawn) here?
A: inactive: > 100 µM

Q: Which GI50 does the source give for `O=C(c1ccccc1)N1C(=S)N(c2ccccn2)C(=N/c2ccccc2)/C1=N\c1ccccc1` here?
A: inactive: 14.8 µM

Q: Which GI50 does the source give for `OC12CCCCCC1(N1CCOCC1)c1ccccc12` (stereo not drawn) here?
A: inactive: > 100 µM

Q: With `CC1(C)CCc2cc3c(cc2O1)OC(C)(C)CC3=O` as the molecule, how does the GI50 read?
A: inactive: > 100 µM

Q: How did the GI50 turn out when `C=C1CCCC(C)(C)C1CCC1(C)CCC(C(C)C(=O)OC)OO1` (stereo not drawn) was run?
A: inactive: 8.59 µM

Q: `CC(=O)Oc1ccn2nc(C)c(Br)c2c1Br` was tested. Which GI50 did it give?
A: inactive: > 68.1 µM

Q: Which GI50 does the source give for `COC(=O)c1cc2c(c(C(=O)OC)c1)CCC2` here?
A: inactive: > 100 µM

Q: `CCOC(NC(=O)CC)(C(F)(F)F)C(F)(F)F` was tested. Which GI50 did it give?
A: inactive: > 100 µM

Q: With `CCNc1ncnc2sc(SCc3ccccc3)nc12` as the molecule, how does the GI50 read?
A: inactive: > 100 µM

Q: Which GI50 does the source give for `C(#Cc1ccccc1)SC1=C(c2ccccc2)S/C(=C(\SC#Cc2ccccc2)c2ccccc2)S1` here?
A: inactive: > 100 µM

Q: Which GI50 does the source give for `Nc1ccc(C(=O)N/C(=C\c2cccc([N+](=O)[O-])c2)c2nc3c(O)nc(S)nc3[nH]2)cc1` here?
A: inactive: > 100 µM

Q: `Brc1ccc2c([C@H]3CN[C@@H](c4c[nH]c5cc(Br)ccc45)CN3)c[nH]c2c1` was tested. Which GI50 did it give?
A: inactive: 6.12 µM

Q: `O=S(=O)(O)c1ccc(O)c2ncc(Cl)cc12` was tested. Which GI50 did it give?
A: inactive: > 100 µM

Q: How did the GI50 turn out when `CO[C@@H](C(=O)OC1C=CC2(CC1)C(=O)N(C)c1ccccc12)c1ccccc1` (stereo partly drawn) was run?
A: inactive: > 100 µM

Q: Which GI50 does the source give for `Cc1ccc(OP2(=O)Oc3ccc4ccccc4c3CN2c2ccc(Cl)cc2)cc1C` (stereo not drawn) here?
A: inactive: > 100 µM

Q: With `O=C(O)CCS/C(=C\C(SCCC(=O)O)c1ccc(Cl)cc1)c1ccc(Cl)cc1` (stereo not drawn) as the molecule, how does the GI50 read?
A: inactive: 48.9 µM

Q: For `CC(C)=CC(=O)C1c2cccc(O)c2C(=O)c2c(O)cc(C)cc21` (stereo not drawn), which GI50 is on record?
A: inactive: 2.25 µM

Q: How did the GI50 turn out when `Cc1ccccc1C(=O)c1c(O)c2c(c(O)c1Br)CCCC2` was run?
A: inactive: 19.2 µM

Q: `CCCCCCCCCC(=O)N[C@@H](c1ccco1)[C@@H](O)C(=O)O[C@H]1C[C@@]2(O)[C@@H](OC(=O)c3ccccc3)[C@@H]3[C@]4(OC(C)=O)CO[C@@H]4C[C@H](O)[C@@]3(C)C(=O)[C@H](OC(C)=O)C(=C1C)C2(C)C` was tested. Which GI50 did it give?
A: active: 0.813 µM

Q: With `CC1=C(C(=O)Nc2ccccc2C)C(c2ccco2)C(C(=O)Nc2ccccc2C)=C(C)N1C` as the molecule, how does the GI50 read?
A: inactive: > 100 µM

Q: How did the GI50 turn out when `CCCNCCCCC(NC(C)=O)C(=O)NCc1ccccc1` (stereo not drawn) was run?
A: inactive: > 100 µM

Q: How did the GI50 turn out when `CC(=O)CC(=O)N1CCSC1=S` was run?
A: inactive: > 10 µM

Q: `Cc1cc2nc(N3C(=O)/C(=C/Cc4ccco4)N=C3c3ccccc3)sc2cc1C` was tested. Which GI50 did it give?
A: inactive: 54.2 µM

Q: `COC(=O)[C@]12CSC[C@H]1C[C@H](c1cccc3ccccc13)N2` was tested. Which GI50 did it give?
A: inactive: > 100 µM

Q: With `CCCCCCCCCCCCCCCCC1=CC(=O)C=C(OC)C1=O` as the molecule, how does the GI50 read?
A: inactive: > 100 µM

Q: How did the GI50 turn out when `N#CC12CC(C=O)=C(N)C1(C#N)CC(C=O)=C2N` (stereo not drawn) was run?
A: inactive: > 100 µM

Q: `Cc1c(N2C(=O)/C(=C/c3ccc(Cl)cc3)N=C2c2ccccc2)c(=O)n(-c2ccccc2)n1C` was tested. Which GI50 did it give?
A: inactive: 31.6 µM

Q: How did the GI50 turn out when `CC(=O)Nc1cccc(N2C(=O)/C(=C\c3cccc(Oc4ccccc4)c3)SC2c2ccccc2)c1` (stereo not drawn) was run?
A: inactive: > 100 µM

Q: Which GI50 does the source give for `O=C(O)C12CC3CC(CC(F)(C3)C1)C2` here?
A: inactive: > 100 µM

Q: Which GI50 does the source give for `O=C1CSC2=NC3=C(CSC/C3=C\c3ccccc3)C(c3ccccc3)N12` (stereo not drawn) here?
A: inactive: > 100 µM

Q: Which GI50 does the source give for `Cc1noc(C)c1CCCOC1COc2ccccc2OCCOCCOc2ccccc2OC1` here?
A: inactive: > 100 µM

Q: With `NN/C(Cc1ccccc1)=N/NC(N)=S` as the molecule, how does the GI50 read?
A: inactive: > 100 µM

Q: With `COc1ccc(NC=O)c(C(O)CCNC(C)=O)c1` (stereo not drawn) as the molecule, how does the GI50 read?
A: inactive: > 100 µM

Q: For `COc1cc2c(cc1O)CC[C@@H]1C2CC[C@@]2(C)C1CC[C@@H]2O` (stereo partly drawn), which GI50 is on record?
A: inactive: 4.83 µM

Q: With `Clc1ccc(C2ON=C(c3ccccc3)N2C23CC4CC(CC(C4)C2)C3)cc1` (stereo not drawn) as the molecule, how does the GI50 read?
A: inactive: > 10 µM

Q: How did the GI50 turn out when `CC1=NN(c2cccc(Cl)c2)C(=N/c2nc3ccccc3s2)/C1=C\c1ccc(Cl)cc1` was run?
A: inactive: 27.3 µM

Q: How did the GI50 turn out when `S=c1sc2nc(Cl)nc(Cl)c2s1` was run?
A: inactive: 17.1 µM

Q: For `C#CCC(N)(CO)C(=O)O` (stereo not drawn), which GI50 is on record?
A: inactive: > 100 µM

Q: With `CSc1nc(O)c2cn(Cc3ccccc3)nc2n1` as the molecule, how does the GI50 read?
A: inactive: > 66.4 µM

Q: For `CN(C)c1nc2n(CCO)c(-c3ccccc3)c(-c3ccccc3)nc-2c(=O)n1`, which GI50 is on record?
A: inactive: > 100 µM

Q: For `Cc1c2ncccc2cc2oc3ccccc3c(=O)c12`, which GI50 is on record?
A: inactive: 58.7 µM

Q: How did the GI50 turn out when `O=C1C(=C(C(F)(F)Cl)C(F)(F)Cl)C2CCC1C2` (stereo not drawn) was run?
A: inactive: > 5.46 µM

Q: With `O=C(Nc1ccc(Cl)cc1)c1cc(S(=O)(=O)Nc2nnc3c(Cl)cc(C(F)(F)F)cn23)c(S)cc1Cl` as the molecule, how does the GI50 read?
A: inactive: 47.6 µM

Q: Which GI50 does the source give for `CC(C)=CCC[C@@H](C)/C=C/C=C(\C)C(=O)CC[C@@H]1CC[N@+]2(C)CCCC[C@H]12` here?
A: inactive: > 100 µM

Q: For `CC(=O)/C(=C\c1ccccc1O)C(=O)Nc1ccccc1C`, which GI50 is on record?
A: inactive: 22.4 µM

Q: With `Cc1ccccc1NC(=O)CC(=O)n1nc(-c2ccccc2)c(/N=N/c2ccc([N+](=O)[O-])cc2)c1-c1ccccc1` as the molecule, how does the GI50 read?
A: inactive: 24.9 µM

Q: `COC1O[C@H]2CCN(C(=O)OCc3ccccc3)[C@H]2[C@H]1OCc1ccccc1` (stereo partly drawn) was tested. Which GI50 did it give?
A: inactive: > 100 µM

Q: How did the GI50 turn out when `C=C1C(=O)O[C@@H]2OC3(C)CCC4C(C)CCC1C42OO3` (stereo partly drawn) was run?
A: inactive: 5.92 µM

Q: Which GI50 does the source give for `OC1(c2ccc3ccccc3c2)c2ccc3ccccc3c2C2=NCCN21` (stereo not drawn) here?
A: inactive: > 100 µM

Q: `COc1ccc(-c2cc(=O)c3ccc(O)cc3o2)cc1OC` was tested. Which GI50 did it give?
A: inactive: 26.1 µM

Q: `C=CCNC(=S)N/N=C1\C(=O)Nc2ccc([N+](=O)[O-])cc21` was tested. Which GI50 did it give?
A: inactive: 87.9 µM

Q: For `CC1=NN(C(=O)c2ccccc2O)C(=O)/C1=C/c1cccc(O)c1`, which GI50 is on record?
A: inactive: 3.65 µM

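Each compound was tested at five concentrations against cells in 96-well plates for 48 hours. GI50 marks 50% less growth.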 Calls of active or inactive are those of the source. Cut-off read from the data, not from the text of the source: active = GI50 up to about 1.1 µM and inactive = higher.
